Source: patent US12582644B2, “O-GlcNAc transferase inhibitors and uses thereof” (President and Fellows of Harvard College, priority 2018, dated 2026)
Each block holds one compound with its values, some of them ahead of it.

Tests used:
full length OGT = target: T1, full length OGT (Homo sapiens, UniProt O15294); assay: Dissociation constants by microscale thermophoresis (MST); conditions: for Kd: Binding affinity (Kd ± s.d.), binding of compounds to OGT; for Kd compared with 2a and 4a: comparison in words
T1 sequence (O15294 1-1046): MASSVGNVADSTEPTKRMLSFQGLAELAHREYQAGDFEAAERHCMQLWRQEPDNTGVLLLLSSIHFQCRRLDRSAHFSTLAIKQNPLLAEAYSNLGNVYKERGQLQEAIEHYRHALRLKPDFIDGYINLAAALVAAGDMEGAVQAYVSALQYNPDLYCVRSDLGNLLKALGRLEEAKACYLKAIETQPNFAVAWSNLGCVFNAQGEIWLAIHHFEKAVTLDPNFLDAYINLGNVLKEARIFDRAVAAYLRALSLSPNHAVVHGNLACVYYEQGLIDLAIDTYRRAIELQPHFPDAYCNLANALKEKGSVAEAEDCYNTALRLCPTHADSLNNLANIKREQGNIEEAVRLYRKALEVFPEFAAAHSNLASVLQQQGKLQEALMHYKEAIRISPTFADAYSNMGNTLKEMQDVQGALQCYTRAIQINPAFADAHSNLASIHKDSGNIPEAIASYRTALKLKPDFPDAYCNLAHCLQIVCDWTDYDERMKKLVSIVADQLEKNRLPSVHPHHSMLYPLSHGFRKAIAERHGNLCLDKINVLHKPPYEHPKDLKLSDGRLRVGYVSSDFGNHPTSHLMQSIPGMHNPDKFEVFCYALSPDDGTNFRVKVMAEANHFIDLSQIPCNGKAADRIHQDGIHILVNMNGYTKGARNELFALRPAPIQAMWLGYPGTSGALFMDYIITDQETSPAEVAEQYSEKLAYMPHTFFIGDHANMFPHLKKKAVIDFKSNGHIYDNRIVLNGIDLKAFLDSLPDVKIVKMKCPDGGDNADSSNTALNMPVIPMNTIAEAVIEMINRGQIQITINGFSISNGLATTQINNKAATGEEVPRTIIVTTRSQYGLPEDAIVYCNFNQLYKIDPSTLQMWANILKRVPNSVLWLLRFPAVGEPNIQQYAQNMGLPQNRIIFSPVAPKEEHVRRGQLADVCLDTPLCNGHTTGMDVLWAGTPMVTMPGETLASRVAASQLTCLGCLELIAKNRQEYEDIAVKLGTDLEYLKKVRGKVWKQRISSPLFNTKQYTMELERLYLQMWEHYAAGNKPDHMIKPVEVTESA

[1] = test system: global O-GlcNAcylation in HEK293T cells; assay: Western blotting for global O-GlcNAc levels in HEK293T cells; format: cell-based; conditions: for protein O-GlcNAcylation: 20 μM, from 2 hours (FIG. 13E)
[2] = test system: OGT's detained intron (intron 4) in HEK293T cells; assay: Quantitative PCR of OGT detained intron splicing; format: cell-based; conditions: 10 μM, 2-hour treatment
Experimental: Total RNA was harvested directly from tissue culture plates using Trizol (Life Technologies) according to the manufacturer's directions. In all experiments, total RNA was treated with Turbo DNase (Life Technologies) to remove any residual DNA contamination, extracted in acid-buffered phenol/chloroform, and ethanol-precipitated. Reverse transcription was performed using 2 μg of DNase-treated total RNA in a 20 μL reaction following the manufacturer's protocol (SuperScript III, Life Technologies) for 1 h at 50° C. cDNA reactions were […] diluted 1:10, and 1 μL was used in each PCR reaction. Real-time qRT-PCR was performed using PowerUp SYBR Green (Life Technologies) on a StepOne-Plus Real-Time PCR System (Applied Biosystems).

[3] = test system: global O-GlcNAcylation in HCT116 cells; assay: Western blotting for global O-GlcNAc levels in HCT116 cells; format: cell-based
HCT116 cells = assay: Cell viability and live-cell imaging (IncuCyte confluence, CellTiter-Glo); format: cell-based; conditions: HCT116, 96 hours, 10 or 40 μM
Experimental: (§1) HCT116 cells were plated into 384-well plate one day prior to treatment with compounds (300 cells per well). Compounds were dispensed using a D300e Digital Dispenser (Tecan). Cells were imaged every 3 hours using an IncuCyte ZOOM instrument (Sartorius) to generate growth curves. After four days of treatment, cell viability was assessed using the CellTiter-Glo® Luminescent Cell Viability Assay (Promega). Luminescence signal was recorded using the GloMax® Explorer System (Promega). For Cytotoxicity, HEK293T cells were plated into a 96-well plate two days prior to treatment with compounds at 80% confluency. The number of dead cells were assessed by CellTox™ Green Cytotoxicity Assay (Promega).

HEK293T cells [4] = assay: Quantitative proteomics / protein abundance in HEK293T cells; conditions: 4b, 24 hr
HEK293T cells [5] = assay: CellTox Green Cytotoxicity Assay; format: cell-based; conditions: 24 hours, 0-50 μM
Experimental: as §1

[6] = test system: HCF-1 cleavage in HEK293T cells; assay: HCF-1 cleavage in HEK293T cells (Western blotting); format: cell-based; conditions: 20 μM
Source text: In addition to glycosylating Ser/Thr residues of proteins, OGT catalyzes cleavage of the cell-cycle regulator HCF-1 by glycosylating a glutamate in the HCF-1 cleavage sequence.^4c,7 An OGT inhibitor would be expected to block cleavage. Indeed, a decrease in HCF-1 cleavage products and the appearance of uncleaved HCF-1 in cells treated with 1b, 2b or 4b was observed (FIGS. 2E, 16). Because OGT knockdown is known to decrease cell proliferation,^8 the effects of 1b, 2b, and 4b on cell growth in culture over 96 hours were also monitored. Although there was no evidence of apoptosis, reduced growth of cells was observed over time (FIG. 17), consistent with the knockdown results.

Kd (full length OGT): 4100 ± 3000 nM
SMILES: COc1ccccc1[C@H](NS(=O)(=O)c1ccc2[nH]c(=O)ccc2c1)C(=O)N(CC(=O)O)Cc1cccs1 [ent-1a, (S)—N-(2-(2-methoxyphenyl)-2-((2-oxo-1,2-dihydroquinoline)-6-sulfonamido)acetyl)-N-(thiophen-2-ylmethyl)glycine]

Kd (full length OGT): 140 ± 50 nM
SMILES: O=C(O)CCCOc1ccccc1[C@H](NS(=O)(=O)c1ccc2[nH]c(=O)ccc2c1)C(=O)N(CC(=O)O)Cc1cccs1 [ent-2a, (S)-4-(2-(2-((carboxymethyl)(thiophen-2-ylmethyl)amino)-2-oxo-1-((2-oxo-1,2-dihydroquinoline)-6-sulfonamido)ethyl)phenoxy)butanoic acid]

Kd (full length OGT): 140 ± 60 nM | Kd compared with 2a and 4a (full length OGT): an order of magnitude or more higher
SMILES: COc1ccccc1[C@@H](NS(=O)(=O)c1ccc2[nH]c(=O)ccc2c1)C(=O)N(CC(=O)O)Cc1cccs1 [1a, (R)—N-(2-(2-methoxyphenyl)-2-((2-oxo-1,2-dihydroquinoline)-6-sulfonamido)acetyl)-N-(thiophen-2-ylmethyl)glycine]

Kd (full length OGT): 5 ± 1 nM
SMILES: O=C(O)CCCOc1ccccc1[C@@H](NS(=O)(=O)c1ccc2[nH]c(=O)ccc2c1)C(=O)N(CC(=O)O)Cc1cccs1 [2a, (R)-4-(2-(2-((carboxymethyl)(thiophen-2-ylmethyl)amino)-2-oxo-1-((2-oxo-1,2-dihydroquinoline)-6-sulfonamido)ethyl)phenoxy)butanoic acid]

The remaining lines, values behind:

SMILES: COC(=O)CN(Cc1cccs1)C(=O)[C@@H](NS(=O)(=O)c1ccc2[nH]c(=O)ccc2c1)c1ccccc1OC [ent-1b, Methyl (S)—N-(2-(2-methoxyphenyl)-2-((2-oxo-1,2-dihydroquinoline)-6-sulfonamido)acetyl)-N-(thiophen-2-ylmethyl)glycinate]
protein O-GlcNAcylation ([1]; HEK293T): no effect

SMILES: CCOC(=O)CN(Cc1cccs1)C(=O)[C@H](NS(=O)(=O)c1cc2ccc(=O)[nH]c2cc1Cl)c1ccccc1OC [4b, Ethyl (R)—N-(2-((7-chloro-2-oxo-1,2-dihydroquinoline)-6-sulfonamido)-2-(2-methoxyphenyl)acetyl)-N-(thiophen-2-ylmethyl)glycinate]
detained intron splicing of OGT transcript [2]: increased detained intron splicing | global O-GlcNAc levels, comparison with 1b ([3]; HCT116, 24-hour treatment, 20 μM (FIG. 15B)): more effective than 1b | cell growth (HCT116 cells): reduced cell growth compared with the control | number of proteins that changed significantly (HEK293T cells [4]): 86 | cytotoxic cell death (HEK293T cells [5]): did not result in cytotoxic cell death | HCF-1 cleavage, 4b compared with 2b ([6]; 24 hours): more effective at reducing HCF-1 cleavage | HCF-1 cleavage ([6]; 48 hours): blocked HCF-1 cleavage | ability to inhibit global O-GlcNAcylation, ranking ([1]; HCT116, HEK293T, PC3, and LNCaP cells): best activity | global O-GlcNAc levels, 4b compared with 2b ([1]; HEK293T, 24 hours, 20 or 50 μM (FIG. 15A)): greater reductions in O-GlcNAc levels | O-GlcNAc levels, dose dependence ([1]; HEK293T, 24 hours, effects from 5 μM (FIG. 15C)): dose dependent decrease in O-GlcNAc levels | EC50 ([1]; Homo sapiens, HEK-293T, HEK293T, 24 hours, densitometry of Western blot corrected for actin, read-out: EC50 in cells (% O-GlcNAc levels relative to untreated control)): ~3000 nM | O-GlcNAc levels ([1]; by 5 μM (FIGS. 2B, 15)): reducing O-GlcNAc levels almost completely

SMILES: COC(=O)CCCCOc1ccccc1[C@@H](NS(=O)(=O)c1ccc2[nH]c(=O)ccc2c1)C(=O)N(CC(=O)OC)Cc1cccs1 [3b, Methyl (R)-5-(2-(2-((2-methoxy-2-oxoethyl)(thiophen-2-ylmethyl)amino)-2-oxo-1-((2-oxo-1,2-dihydroquinoline)-6-sulfonamido)ethyl)phenoxy)pentanoate]
O-GlcNAc levels, dose dependence ([3]; HCT116, 20-80 μM, 4 hours or 24 hours): dose dependent decreases in O-GlcNAc levels | O-GlcNAc levels, comparison of inhibitors ([1]; HEK293T, 20 μM (1b, 2b, 3b) or 50 μM (2b, 3b) (FIG. 13A)): 1b and 2b are more effective than 3b

SMILES: O=C(O)CCCCOc1ccccc1[C@@H](NS(=O)(=O)c1ccc2[nH]c(=O)ccc2c1)C(=O)N(CC(=O)O)Cc1cccs1 [3a, (R)-5-(2-(2-((carboxymethyl)(thiophen-2-ylmethyl)amino)-2-oxo-1-((2-oxo-1,2-dihydroquinoline)-6-sulfonamido)ethyl)phenoxy)pentanoic acid]
Kd (full length OGT): 45 ± 20 nM | Kd compared with 2a and 4a (full length OGT): an order of magnitude or more higher

SMILES: CCOC(=O)CCCOc1ccccc1[C@H](NS(=O)(=O)c1ccc2[nH]c(=O)ccc2c1)C(=O)N(CC(=O)OCC)Cc1cccs1 [ent-2b, Ethyl (S)-4-(2-(2-((2-ethoxy-2-oxoethyl)(thiophen-2-ylmethyl)amino)-2-oxo-1-((2-oxo-1,2-dihydroquinoline)-6-sulfonamido)ethyl)phenoxy)butanoate]
protein O-GlcNAcylation ([1]; HEK293T): no effect
